Measurements reported in PubChem BioAssay AID662 (National Center for Advancing Translational Sciences (NCATS), 2007).
Among all 71,000 compounds or so, about 1,800 (2.5%) were called active. Inconclusive means that the source gave no clear call. Such entries were picked first, then a sample of the others. Calls follow the shape of the dose curve; as a rule, active = well fitted activation curve with a large enough effect in the signal ratio, with a control signal flat (not every such curve was filed as active); inconclusive = small, poorly fitted or top-dose-only effect, or effect the other way, or a change in a side signal; inactive = flat fitted curve, though single readings scatter; the % refers to the signal ratio. Potencies of inconclusive entries are doubtful fits and often do not repeat.

Assay: Cell signaling CRE-BLA (Fsk stim); as to activity change, negative = inhibition: % of control where 0% means no effect
Settings: CHO CRE-bla reporter (cAMP response element driving beta-lactamase), forskolin EC10, beta-lactamase ratio; activity change, negative = inhibition: at 38.2 µM (top of the series) unless noted
In short: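 CRE-bla CHO reporter cells treated with compound titration plus EC10 NKH 477 (water-soluble forskolin), incubated 3 h at 37 °C; CCF4 loading 2 h at room temperature, 460/530 nm emission ratio read, AC50 values derived for positive or negative modulators.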
Potency is read from the fitted curve at half-maximal effect; tags tell the direction and shape of the fitted curve.

Structure (SMILES)	activity change, negative = inhibition	Potency
O=C(O)[C@@H](O)[C@@H](O)[C@H](O)[C@H](O)CO	inconclusive: 5.21% [at 7.6 µM]	–
O=C(Cn1ccc2ccccc2c1=O)NCCC(=O)NC1CCN(Cc2ccccc2)CC1	inactive: 4.05%	–
COc1nc(-c2ccccc2)ccc1-c1noc(COc2ccccc2)n1	inconclusive: 22.4%	–
CC(=O)OC(/C(O)=C(\C#N)c1nc2ccccc2[nH]1)c1ccccc1 (stereo unspecified)	–	inconclusive: 5.01 µM [rising, single point]
COc1ccc(S(=O)(=O)NCCSCc2ccco2)cc1	inconclusive: -17.9%	–
Cc1cccnc1NC(=O)CCCN1C(=O)c2ccccc2C1=O	inactive: -3.03%	–
CCN(CC)CCCC(C)n1c(-c2ccccc2)nc2c(N(CCOC)CCOC)nc(C)nc21 (stereo unspecified)	inactive: 15.2%	–
Cc1cc(C(C)(C)C)cc(C)c1CC1=NCCN1	inconclusive: -13.2%	–
Cc1cc(=O)cc(C)n1-c1ccc2c(c1)nc(C)n2-c1ccccc1	inconclusive: 9.32%	–
CCOC(=O)c1c(CN2CCCCC2C)oc2ccc(OC)cc12 (stereo unspecified)	inactive: 2.33%	–
Cc1c(NC(=O)COc2ncnc3ccccc23)c(=O)n(-c2ccccc2)n1C	inactive: 2.66%	–
Cc1cc(CC(C)C)n(-c2nc3ccccc3c(=O)n2OCC(=O)N(C)C)n1	inconclusive: 8.37%	–
Cc1cc(NCCCN2CCOCC2)n2nc(C)c(-c3ccc(F)cc3)c2n1	inconclusive: 59.4%	–
C=Cc1ccccn1	inactive: -7.51%	–
O=c1c(-c2ccccc2)nc2cncnc2n1Cc1ccccc1	–	inconclusive: 10 µM [rising, single point]
Cc1ccc(CCNC(=O)C2CCCN(S(=O)(=O)c3cccc4nsnc34)C2)cc1 (stereo unspecified)	inactive: 1.66%	–
CCOc1ccccc1Nc1nc(N)nc(CN(C)C2CCCCC2)n1	inactive: -11.3%	–
ICCc1ccccc1	inactive: -8.56%	–
CCOC(=O)NC(Nc1ccc(S(N)(=O)=O)cc1)(C(=O)OCC)C(F)(F)F (stereo unspecified)	inactive: -12.7%	–

Structure (SMILES)	activity change, negative = inhibition	Potency
COC(=O)c1cc(COc2ccc3ccc(=O)oc3c2)c(C)o1	inconclusive: 12%	–
CCn1c(SCC(=O)OC)nc2sc3c(c2c1=O)CCC3	–	active: 12.6 µM
O=C(Nc1ccccc1)Nc1ccc(S(=O)(=O)N2CCCCC2)cc1	inconclusive: -16.6%	–
Cc1ccc(C)c2[nH]c(=O)c(CN(CC3CCCO3)C(=O)NC3CCCCC3)cc12 (stereo unspecified)	inactive: -2.01%	–
CC1Cc2ccccc2N1Cc1nc2scc(-c3cccs3)c2c(=O)[nH]1 (stereo unspecified)	inconclusive: 2.73%	–
O=C(Nc1ccccc1-c1nc2ccccc2s1)c1ccco1	inconclusive: 20%	–
CCOC(=O)c1sc(NC(=O)C2CC2)cc1C	–	inconclusive: 10 µM [rising, partial curve]
CCCCN1C(=O)/C(=C2\SC(N3CCCCC3)=NC2=O)c2ccccc21	–	active: 10 µM
O=C(O)CCC(=O)CCC(=O)c1ccccc1	inconclusive: -4.12%	–
Cc1nn(-c2ccccc2)c2sc(C(=O)N(CC(=O)NC3CCCC3)Cc3ccco3)cc12	–	inconclusive: 10 µM [rising, partial curve]
CC(C)CNC(=O)c1ccccc1NC(=O)CN(c1ccc2c(c1)OCCO2)S(C)(=O)=O	inconclusive: 21.3%	–
Cc1cc(NS(=O)(=O)c2ccc(NC(=O)CCN3C(=O)c4ccccc4C3=O)cc2)no1	–	inconclusive: 25.1 µM [rising, single point]
Cc1ccc(-n2nnnc2SCCNS(=O)(=O)c2ccccc2)cc1C	–	inconclusive: 5.01 µM [rising, single point]
O=C(c1cnn2c(C(F)(F)F)cc(-c3ccco3)nc12)N1CCCCCC1	inconclusive: 21.9%	–
CCOC(=O)N1CCN(C(=O)c2cc3c(=O)n(C)c4ccccc4c3n2C)CC1	–	inconclusive: 10 µM [rising, partial curve]
COc1cc(NC(=O)c2ccc(-c3ccc(Br)cc3)o2)ccc1NC(=O)C(C)C	–	inconclusive: 2.51 µM [rising, full curve, poor fit]
CCCCC(=O)NCCc1ccc(S(N)(=O)=O)cc1	inactive: -10.9%	–
O=C(c1ccc2nc(N3CCOCC3)sc2c1)N1CCCC1	inactive: 11.4%	–
CC(=O)c1sc2nc(-c3cccs3)cc(C(F)(F)F)c2c1N	–	inconclusive: 12.6 µM [falling, partial curve]

Structure (SMILES)	activity change, negative = inhibition	Potency
O=C(c1cccn2c(=O)c3ccccc3nc12)N1CCN(Cc2ccc3c(c2)OCO3)CC1	–	inconclusive: 20 µM [rising, partial curve]
COc1ccc(N2CCN(C(c3cc(OC)ccc3OC)c3nnnn3Cc3ccco3)CC2)cc1 (stereo unspecified)	inconclusive: 15.1%	–
COc1ncc2nc(-c3cccs3)c(=O)n(Cc3cccs3)c2n1	–	active: 2.51 µM
Cc1cc(C)n2nc3ccccc3c2n1	–	active: 5.01 µM
O=C(Cc1nc2ccccc2[nH]1)NCc1ccco1	inconclusive: 20.1%	–
COc1ccc(Oc2ncc3ncc(=O)n(Cc4cccs4)c3n2)cc1	inactive: -6.64%	–
CC1CCN(C(c2ccccc2)c2nnnn2C(C)(C)C)CC1 (stereo unspecified)	inactive: 3.23%	–
Cc1ccc(C)c(C(=O)CSc2n[nH]c(C)n2)c1	inconclusive: -14.7% [at 7.6 µM]	–
O=C(O)c1ccc(CNC(=O)c2ccc(Br)o2)cc1	inconclusive: 4.02%	–
CCC[C@H]1C[C@H](C(=O)N[C@@H]([C@H]2O[C@@H](SC)[C@@H](O)[C@@H](O)[C@@H]2O)[C@H](C)Cl)N(C)C1	inactive: 5.19% [at 17.1 µM]	–
CCN(CC)CCOCCOC(=O)C1(c2ccccc2)CCCC1	inconclusive: -20.2%	–
CCNc1oc(-c2cccc3ccccc23)nc1C#N	–	inconclusive: 5.01 µM [rising, full curve]
Cc1ccccc1N(CC(=O)NCCc1ccccc1)C(=O)c1ccc(N2CCCC2)nc1	inconclusive: -20.7%	–
CC(COc1cccc2ccccc12)CN1CCN(C)CC1 (stereo unspecified)	inactive: -16.8%	–
c1ccc(-c2nnc(N3CCOCC3)nc2-c2ccccc2)cc1	–	inconclusive: 2.51 µM [rising, single point]
O=C(Nc1ccccc1)N(C1=NCCC1)c1ccc(OC(F)F)cc1	inactive: 5.22%	–
CCN(CCNS(=O)(=O)c1ccc2[nH]c(=O)sc2c1)c1ccccc1	inactive: -6.64%	–
CCCSc1nc(C)cc(=O)[nH]1	–	inconclusive: 12.6 µM [rising, single point]
